Where a name gives a salt, the structure may show the parent alone. ± gives the standard deviation of the averaged measurements. In all, about 3,200 compounds were measured (“nuclei count (viability) relative to DMSO”: median about 99, lowest 2% from about 16 on). The list shows a part of the results.
Tested on: U2OS
Assay: nuclei count (viability) relative to DMSO (% of DMSO); higher = more viable cells
Details: 10 µM; 24 h
Protocol: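 Primary image-based screen in U2OS cells: compounds at 10 uM for 24 h, then a 1 h o-propargyl-puromycin (OPP) pulse, click labelling, and high-throughput microscopy. Mean cytoplasmic OPP intensity and nuclei count were normalised to DMSO wells within each plate (DMSO = 100) and averaged over triplicate plates.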

| Compound | nuclei count |
| --- | --- |
| C1CCc2nnnn2CC1 [Pentylenetetrazole] | 97.5 ± 8.5 |
| C=C1[C@@H]2CC[C@H]3[C@]4(C)C[C@H](O[C@@H]5O[C@H](CO)[C@@H](OS(=O)(=O)O)[C@H](OS(=O)(=O)O)[C@H]5OC(=O)CC(C)C)C[C@@H](C(=O)O)[C@H]4CC[C@]3(C2)[C@@H]1O [Atractyloside potassium salt] | 104 |
| CC(Cc1ccc(O)cc1)NCC(O)c1cc(O)cc(O)c1 (stereo not given) [Fenoterol hydrobromide] | 92.9 |
| C/C(=C\c1csc(C)n1)[C@@H]1C[C@@H]2O[C@]2(C)CCC[C@H](C)[C@H](O)[C@@H](C)C(=O)C(C)(C)[C@@H](O)CC(=O)O1 [Epothilone B (EPO906)] | 46.5 |
| C=CC[C@]1(O)CC[C@H]2[C@@H]3CCC4=CC(=O)CCC4=C3C=C[C@@]21C [Altrenogest] | 96.3 |
| CN1C(=O)[C@]23CC4=CC=C[C@H](O)[C@H]4N2C(=O)[C@@]1(CO)SS3 [Gliotoxin] | 36 |
| C[C@]12CC[C@@H](O)C[C@@H]1CC[C@@H]1[C@@H]2CC[C@]2(C)C(=O)CC[C@@H]12 [Androsterone] | 98.3 |
| CNCC(O)c1ccc(O)cc1 (racemic) [(+,-)-Synephrine] | 102 |
| C=C[C@H]1CN2CC[C@H]1C[C@H]2[C@H](O)c1ccnc2ccccc12 [Cinchonidine] | 103 |
| Cc1cccc(C(C)c2c[nH]cn2)c1C (stereo not given) [Medetomidine hydrochloride] | 88.9 |
| Cc1cccc(C(C)c2c[nH]cn2)c1C (stereo not given) [Medetomidine HCl] | 105 |
| COc1ccc2c(c1)[C@]13CCCC[C@@H]1[C@H](C2)N(C)CC3 [Dextromethorphan hydrobromide monohydrate] | 107 |
| Clc1cnc(Oc2ccc(Oc3ncc(Cl)cc3Cl)cc2)c(Cl)c1 | 102 |
| COC[C@H]1OC(=O)c2coc3c2[C@@]1(C)C1=C(C3=O)[C@@H]2CCC(=O)[C@@]2(C)C[C@H]1OC(C)=O [Wortmannin] | 95.8 ± 5.6 |
| CN(C(=O)Cc1ccc(Cl)c(Cl)c1)[C@H](CN1CCCC1)c1ccccc1 [ICI-199,441 hydrochloride] | 100 |
| CC(=O)N(C)c1cccc(-c2ccnc3c(C(=O)c4cccs4)cnn23)c1 [Indiplon] | 105 |
| CC1(C)CC(O)CC(C)(C)N1[O] [Tempol (4-Hydroxy-TEMPO)] | 98.6 |
| CC1(C)CC(O)CC(C)(C)N1[O] | 99.9 |
| C[C@H](Cc1ccc(OCC(=O)O)cc1)NC[C@H](O)c1cccc(Cl)c1 | 103 |
| N[C@@H](Cn1oc(=O)[nH]c1=O)C(=O)O [L-Quisqualic acid] | 99.1 |

Reference: the supplement of paper PMC8183993
